Assay [1] addresses T1, endogenous CD83 expressed on mature dendritic cells (MUTZ-3 derived mDCs or human monocyte-derived DCs) (human, UniProt Q01151 20-205).
T1 construct: Endogenous, untagged protein on dendritic cells; also called CD83 on mDC; cell surface CD83
T1 sequence: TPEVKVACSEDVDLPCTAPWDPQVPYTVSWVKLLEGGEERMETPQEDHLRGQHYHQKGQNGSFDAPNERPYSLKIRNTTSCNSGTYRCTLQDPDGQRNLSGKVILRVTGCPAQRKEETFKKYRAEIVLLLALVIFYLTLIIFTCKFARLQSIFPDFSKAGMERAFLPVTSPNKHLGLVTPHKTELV
The experiment in a line: flow cytometry on MUTZ-3 derived mature DCs. The source says:
(§1) CD83 expression on CHO-hCD83 cells and MUTZ-3 derived mDCs was confirmed by staining cells with fluorochrome conjugated antibodies to CD83 and analyzing the cells by flow cytometry on a LSR II flow cytometry using FACSDiva software (Becton Dickinson). Labeled isotype-matched antibodies were used to determine the level of non-specific staining. […] CD83 was expressed on MUTZ-3 derived mDC (black line), but at very low levels on iDC (gray line) (FIG. 1B). Solid histograms represent isotype controls. Following confirmation of cell surface CD83 expression, CHO cells and CHO-hCD83 cells were fixed in 4% PFA for 5 minutes followed by washing with cold 1×PBS. Cells were resuspended in a FACS buffer containing PBS/2% BSA/2 mM EDTA and incubated with 1 μg PE-labeled CD83.Fc or labeled IgG.Fc control protein for 30 minutes on ice in the dark. Cells were washed with FACS buffer and analyzed by flow cytometry. For iDCs and mDCs, cells were labeled with 10 μg/ml PE-labeled CD83.Fc or labeled IgG.Fc control protein prior to fixation and flow cytometry. […] Furthermore, CD83.fc bound to mature DC (black line) but not to immature DC (gray line) (FIG. 1D).

The target in assay [2] is T2, N-terminal HIS-tagged human CD83 stably expressed on CHO cells (CHO-hCD83) (human, UniProt Q01151 20-205).
T2 construct: also called CHO cells expressing human CD83; not shown: N-terminal HIS tag
T2 sequence: T1 sequence
The experiment in a line: flow cytometry on CHO cells stably expressing human CD83.
Source text: as §1

B1: CD83.fc (Fc fusion)
chain: TPEVKVACSEDVDLPCTAPWDPQVPYTVSWVKLLEGGEERMETPQEDHLRGQHYHQKGQNGSFDAPNERPYSLKIRNTTSCNSGTYRCTLQDPDGQRNLSGKVILRVTGCPAQRKEETFKKYGRAQVTDKAAHYTL[sequence of human IgG1 Fc omitted]
modifications: PE-labeled in the flow cytometry binding assays (site not stated)
notes: also called soluble CD83
In the case of B1, the binding result in assay [1] and in assay [2] was “binds” in each case.
